# The supplement of paper PMC11417369
# The other results are listed elsewhere or left out.
# Test system: PfAP2-HC AP2 domain (GST-tagged)
# Assay: gcPBM binding intensity (ln(normalized median fluorescence intensity)); higher = stronger DNA binding
# Outline: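 Binding of GST-tagged P. falciparum DNA-binding domains, expressed in E. coli and used at about 25 μg on average, was carried out for 1 h in 1× PBS containing 1% milk, 0.2 mg/ml BSA, 0.5% salmon testes DNA and 0.03% Triton X-100. The target was an Agilent 4 × 180k array of primer-extended double-stranded 36-bp intergenic genomic probes plus negative controls, read with Alexa488 anti-GST antibody at 488 nm. Binding intensity is the highest Masliner-normalised natural-log median intensity across replicate spots of either probe orientation.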
row,Sequence,gcPBM binding intensity (ln)
1,GTATATATATAAGAAGAAATATATAAATAAAATATA [CACACA_negctrl_site503],9.73
2,GCTTATTAATATCATACACACATAGATATATTTATA [CACACA_site3104],9.78
3,ATTCGTCACATTTTTTGATATATATATATATATATA [CACACA_negctrl_site1785],9.77
4,AATATATAAATGTTGTGTACTAAGCAATATATTTTA [XGTACX_site2483],9.66
5,TAAAAAATATAAACTGCACACACACTAATAAAGAAA [CACACA_site8119],11.1
6,ATATAGTTGTCATATTGTACACTTTAGGGTTGGTTA [XGTACX_site7339],9.72
7,CTATTATCGGTTCCTACACACAAATATATATGTCTA [CACACA_site3579],10.2
8,ACGAATATAGGATGTTTGCACTGTACCAATAAATGA [GTGCAC_site9808],9.66
9,ACCTATTTCAAACACACACACACACCCACAAACATA [CACACA_site977],10.9
10,TTCTTAATACAAATATGTACATATATATATATATAT [XGTACX_site757],9.85
11,GATGTGTAAATAAGGATATATAACAATCAACAAAAC [XGTACX_negctrl_site494],9.88
12,TCATTTTAAGGAAAAAGTACAAAATAATATGTTCCT [XGTACX_site1903],9.31
13,AATAGAAAAAAAAAATGTACAAAATGTTTATAAAAA [XGTACX_site4635],9.79
14,AAATGAATATAAAATATACACACTTATATATTGAAT [CACACA_site202],9.82
15,AAATTACCCTTGTGTACACATATATTATCTGTATTA [CACACA_site4514],9.94
16,AAAAAATTTTAATATGCATGTAATTTTGCTTTTTCA [TGCATGCA_site1044],9.47
17,AGCACGCACAGACACACACACATATTTATATTTATA [CACACA_site6291],10.3
18,TAATATAGGGGTGTTCAAATAAATTTTGTTATTTTT [CACACA_negctrl_site1203],9.8
19,GAAGGAAATAAATCAACACACATATATTATAGATAT [CACACA_site7095],10

row,Sequence,gcPBM binding intensity (ln)
1,ATAATGTAAAATAAATGTACGCAATATATAAAAAAT [XGTACX_site5747],10.1
2,TATTGAAAGTGAATTATAACATTAAAAATATATATA [TGCATGCA_negctrl_site566],9.59
3,TGAATATGTAAATGCACACCAAAAAAAAAAAAAAAA [CACACA_site3566],9.44
4,CAATATAAAAGACACACACACAAACATATATTTATA [CACACA_site7697],11.3
5,AAAATAAAAAAAATGAATTAGTTAAATGAAAAATAA [CACACA_negctrl_site1294],9.62
6,TTTCTTTTTTTGGGCACACAAAATTTTCTCATTTTA [CACACA_site68],9.92
7,ATTATATAATAATGCATGCACCTTATTTTCATTTCA [GTGCAC_site9922],9.71
8,TATCTTCATATATGGTGTACAGATTTTTTTTTTTTT [XGTACX_site5545],9.66
9,ATAAAATTATTATATACATGCAAAATTAATATATTG [TGCATGCA_site507],9.59
10,AAATAGAAAAAATATACACACACTTATTAAATAAAA [CACACA_site3313],10.1
11,AAATAATAAAGTATAACACACATATTTATTTATATA [CACACA_site7822],9.77
12,AAAATTAAAAAAATATGTACTTATGGGTAACATCAT [XGTACX_site5548],9.58
13,CTGATATATTATTTATCTGAATATATTAATATGTAT [GTGCAC_negctrl_site82],9.53
14,GTTATACATTTGAAAAGTACTCATGATTTTTTTTTT [XGTACX_site8177],9.61
15,AATATTCAATATAAAGTGCATTATTGTGCCCCTAAT,9.44
16,TTTTTATTGTTATACTTATATTATTTTATGATTAAA [XGTACX_negctrl_site262],9.51
17,ATAAAAATCAAAAAAAATACATAATAGTAATAATAA [GTGCAC_negctrl_site481],9.79
18,TTTTTTTTTTTTTGGGGTACATTTTAATTAATATTA [XGTACX_site4866],9.61
19,TAAAATATAATTAGCACACATATATAAAATATATAT [CACACA_site4093],9.67

row,Sequence,gcPBM binding intensity (ln)
1,GTTCAAAATATGAACACACACATATATATATATATA [CACACA_site2057],10.1
2,ATCTACATATATTATTGTACATTGTTAAAAATTTAT [XGTACX_site7769],9.67
3,TTTCGTAATATGCGTGTGCACAATGAGTCCATATCT,10
4,GTAAATATGTTTATTAGTACACATATGAAAATAAAT [XGTACX_site5820],9.84
5,ATATATTGTATGTGCTCACACATGTTTCGATATTAT [CACACA_site4336],9.81
6,GTTGTTTCTATAAATTGTACTTAAATATAATTATAT [XGTACX_site585],9.7
7,TCTTTTTTTTTACATACTTTTTTCCTTTTTTTTTTA [CACACA_negctrl_site1429],9.71
8,ACGCACGAAATAAATACATGCATATTGTAAAAATTA [TGCATGCA_site310],9.48
9,GGGAATATATTCAATTGTACATTCTTATTTTATCCA [XGTACX_site8480],9.62
10,TCTTGTAGATATATTTGTACATATATTTATGGGTAT [XGTACX_site1139],9.61
11,CTAGACTTTTTACAATGTACATATTTATGTATTATT [XGTACX_site1833],9.86
12,TTTTTTCATAAATAATGTACATATATATATATATAT [XGTACX_site3620],9.73
13,ATATTATTTATAAGTTGTACGGTATAATATAATATA [XGTACX_site5371],9.58
14,AAAAAATATATATTAACACACACACTAATAAAAAAA [CACACA_site8366],10.4
15,AAAATTTTTTACTTTACACACATTTTGTATATTTTG [CACACA_site1730],10
16,TATTTAATGCAAAAACGTACATAAATAACATTCACA [XGTACX_site5356],9.7
17,TATATATATATTAGTGGTACAAGATTTTTTTCTTTT [XGTACX_site4619],9.54
18,TATAAACACCCATATAAACACACATACATACATACA [CACACA_site8791],10.2
